In patent publication US8592383B2, “Cycloalkyl-fused tetrahydroquinolines as CRTH2 receptor modulators” (Merck Sharp & Dohme Corp., priority 2011, dated 2013):

Molecular target: T1, hCRTH2 (Homo sapiens, UniProt Q9Y5Y4)
T1 sequence (Q9Y5Y4 1-395): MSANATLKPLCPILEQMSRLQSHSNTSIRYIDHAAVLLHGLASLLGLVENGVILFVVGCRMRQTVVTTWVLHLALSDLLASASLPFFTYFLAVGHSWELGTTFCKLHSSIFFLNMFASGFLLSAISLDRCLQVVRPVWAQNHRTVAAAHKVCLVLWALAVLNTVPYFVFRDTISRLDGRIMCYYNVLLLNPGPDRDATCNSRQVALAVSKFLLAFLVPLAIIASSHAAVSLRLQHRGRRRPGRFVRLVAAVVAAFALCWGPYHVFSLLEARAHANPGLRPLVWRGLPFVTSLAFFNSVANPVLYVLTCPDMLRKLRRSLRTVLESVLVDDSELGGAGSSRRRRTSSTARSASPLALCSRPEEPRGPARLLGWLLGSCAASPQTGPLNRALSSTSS
Test: biochemical
Conditions: Ki (nM), Table A; Radioligand Binding Assay A, [3H]PGD2, HEK-hCRTH2 membranes

Row | Compound | Ki [nM]
1 | O=C(O)COC(=O)N(C1CC1)C1c2ccccc2N(C(=O)c2cccc(F)c2)C2CCC21 (single isomer, unassigned) [32J, [[[cyclopropyl[cis, cis-3-(3-fluorobenzoyl)-1,2,2a,3,8,8a-hexahydrocyclobuta[b]quinolin-8-yl]amino]carbonyl]oxy] acetic acid] | 1 to 5
2 | O=C(O)COC(=O)N(C1CC1)C1c2ccccc2N(C(=O)c2ccc(F)c(F)c2)C2CCC21 (single isomer, unassigned) [32K] | 1 to 5
3 | O=C(O)COC(=O)N(C1CC1)C1c2ccccc2N(C(=O)c2ccc(F)cc2)C2CCCC21 (single isomer, unassigned) [32M, [[[cyclopropyl[cis, cis-4-(4-fluorobenzoyl)-2,3,3a,4,9,9a-hexahydro-1H-cyclopenta[b]quinolin-9-yl]amino]carbonyl]oxy]acetic acid] | 1 to 5
4 | O=C(O)COC(=O)N(C1CC1)[C@@H]1c2ccccc2N(C(=O)c2ccc(C(F)(F)F)cc2)[C@@H]2CCC[C@@H]21 (single isomer, unassigned) [32N, [[[cyclopropyl[cis, cis-2,3,3a,4,9,9a-hexahydro-4-[4-(trifluoromethyl)benzoyl]-1H-cyclopenta[b]quinolin-9-yl]amino]carbonyl]oxy]acetic acid] | 1 to 5
5 | CCc1ccc(C(=O)N2c3ccccc3C(N(C(=O)OCC(=O)O)C3CC3)C3CCCC32)cc1 (single isomer, unassigned) [32O, [[[cyclopropyl[cis, cis-4-(4-ethylbenzoyl)-2,3,3a,4,9,9a-hexahydro-1H-cyclopenta[b]quinolin-9-yl]amino]carbonyl]oxy]acetic acid] | 1 to 5
6 | O=C(O)COC(=O)N(C1CC1)C1c2ccccc2N(C(=O)c2ccc(F)c(F)c2)C2CCCC21 (single isomer, unassigned) [32P, [[[cyclopropyl[cis ,cis-4-(3,4-difluorobenzoyl)-2,3,3a,4,9,9a-hexahydro-1H-cyclopenta[b]quinolin-9-yl]amino]carbonyl]oxy]acetic acid] | 5.1 to 20
7 | O=C(O)COC(=O)N(C1CC1)C1c2ccccc2N(C(=O)c2ccc3ccccc3c2)C2CCCC21 (single isomer, unassigned) [32Q, [[[cyclopropyl[cis, cis-2,3,3a,4,9,9a-hexahydro-4-(2-naphthalenylcarbonyl)-1H-cyclopenta[b]quinolin-9-yl]amino]carbonyl]oxy]acetic acid] | 1 to 5
8 | O=C(O)COC(=O)N(C1CC1)[C@@H]1c2ccccc2N(C(=O)c2cc(F)cc(F)c2)[C@@H]2CCC[C@@H]21 (single isomer, unassigned) [32R, [[[cyclopropyl[cis, cis-4-(3,5-difluorobenzoyl)-2,3,3a-4,9,9a-hexahydro-1H-cyclopenta[b]quinolin-9-yl]amino]carbonyl]oxy]acetic acid] | 5.1 to 20
9 | O=C(O)COC(=O)N(C1CC1)C1c2ccccc2N(C(=O)c2cccc(F)c2)C2CCCC21 (single isomer, unassigned) [32S, [[[cyclopropyl[cis, cis-4-(3-fluorobenzoyl)-2,3,3a,4,9,9a-hexahydro-1H-cyclopenta[b]quinolin-9-yl]amino]carbonyl]oxy]acetic acid] | 1 to 5
10 | O=C(O)COC(=O)N(C1CC1)[C@H]1c2cc(F)ccc2N(C(=O)c2ccc(OC(F)(F)F)cc2)[C@H]2CCC[C@H]21 (single isomer, unassigned) [32T] | 1 to 5
11 | [2H]C1(N(C(=O)OCC(=O)O)C2CC2)c2ccccc2N(C(=O)c2ccc(OC(F)(F)F)cc2)C2CCCC21 (single isomer, unassigned) [32U, deuterated-[[[cyclopropyl[cis, cis-2,3,3a,4,9,9a-hexahydro-4-[4-(trifluoromethoxy)benzoyl]-1H-cyclopenta[b]quinolin-9-yl-(d)]amino]carbonyl]oxy]acetic acid] | 1 to 5
12 | CN(CC(=O)O)C(=O)N(C1CC1)C1c2ccccc2N(C(=O)c2ccc(OC(F)(F)F)cc2)C2CCCC21 (single isomer, unassigned) [35H, N-[[cyclopropyl[cis, cis-2,3,3a,4,9,9a-hexahydro-4-[4-(trifluoromethoxy)benzoyl]-1H-cyclopenta[b]quinolin-9-yl]amino]carbonyl]-N-methylglycine] | 5.1 to 20
13 | CN(CC(=O)O)C(=O)N(C1CC1)C1c2ccccc2N(C(=O)c2cccs2)C2CCCC21 (single isomer, unassigned) [35J, N-[[cyclopropyl[cis, cis-2,3,3a,4,9,9a-hexahydro-4-(2-thienylcarbonyl)-1H-cyclopenta[b]quinolin-9-yl]amino]carbonyl]-N-methylglycine] | 5.1 to 20
14 | CN(CC(=O)O)C(=O)N(C1CC1)C1c2ccccc2N(C(=O)c2cccc(OC(F)(F)F)c2)C2CCCC21 (single isomer, unassigned) [35i, N-[[cyclopropyl[cis, cis-2,3,3a,4,9,9a-hexahydro-4-[3-(trifluoromethoxy)benzoyl]-1H-cyclopenta[b]quinolin-9-yl]amino]carbonyl]-N-methylglycine] | 5.1 to 20
15 | O=C(O)CCC(=O)N(C1CC1)C1c2ccc(F)cc2N(C(=O)OCc2ccccc2)C2CCC21 (single isomer, unassigned) [compound 9, 3-(phenylmethyl) cis,cis-8-[(3-carboxy-1-oxopropyl)cyclopropylamino]-5-fluoro-2,2a,8,8a-tetrahydrocyclobuta[b]quinoline-3(1H)-carboxylate] | 5.1 to 20
16 | O=C(O)CCC(=O)N(C1CC1)[C@@H]1c2ccccc2N(CC(=O)Nc2ccc(F)cc2)[C@@H]2CCC[C@@H]21 (single isomer, unassigned) [compound 46, 4-[Cyclopropyl[cis,cis-4-[2-[(4-fluorophenyl)amino]-2-oxoethyl]-2,3,3a,4,9,9a-hexahydro-1H-cyclopenta[b]quinolin-9-yl]amino]-4-oxobutanoic acid] | 201 to 7500
17 | CC12CCC1N(C(=O)OCc1ccccc1)c1ccccc1C2N(CCCC(=O)O)C1CC1 (single isomer, unassigned) [compound 48, 4-((cis, cis-3-(benzyloxycarbonyl)-8a-methyl-1,2,2a,3,8,8a-hexahydrocyclobuta[b]quinolin-8-yl)(cyclopropyl)amino) butanoic acid] | 5.1 to 20
18 | O=C(O)CCC(=O)N(C1CC1)C1c2cc(Br)ccc2N(C(=O)OCc2ccc(F)cc2F)C2CCCC21 (single isomer, unassigned) [compound 49, 4-[(2,4-difluorophenyl)methyl] cis, cis-7-bromo-9-[(3-carboxy-1-oxopropyl)cyclopropylamino]-1,2,3,3a,9,9a-hexahydro-4H-cyclopenta[b]quinoline-4-carboxylate] | 20.1 to 200
19 | Cc1ccc2c(c1)C(N(C(=O)CCC(=O)O)C1CC1)C1CCCC1N2C(=O)c1ccc(OC(F)(F)F)cc1 (single isomer, unassigned) [compound 51, 4-[Cyclopropyl[cis,cis-2,3,3a,4,9,9a-hexahydro-7-methyl-4-[4-(trifluoromethoxy)benzoyl]-1H-cyclopenta[b]quinolin-9-yl]amino]-4-oxobutanoic acid] | 5.1 to 20

Next, values leading:

Row | Ki [nM] | Compound
20 | 5.1 to 20 | O=C(O)COC(=O)N(C1CC1)C1c2ccccc2N(c2nnc(Cc3ccc(OC(F)(F)F)cc3)o2)C2CCCC21 (single isomer, unassigned) [38F, [[[cyclopropyl[cis,cis 2,3,3a,4,9,9a-hexahydro-4-[5-[[4-(trifluoromethoxy)phenyl]methyl]-1,3,4-oxadiazol-2-yl]-1H-cyclopenta[b]quinoline-9-yl]amino]carbonyl]oxy]acetic acid]
21 | 201 to 7500 | O=C(O)COC(=O)N(C1CC1)C1c2ccccc2N(c2nnc(Cc3ccc(OC(F)(F)F)cc3)o2)C2CCCC21 (single isomer, unassigned) [38G, [[[cyclopropyl[cis,cis-2,3,3a,4,9,9a-hexahydro-4-[5-[[4-(trifluoromethoxy)phenyl]methyl]-1,3,4-oxadiazol-2-yl]-1H-cyclopenta[b]quinoline-9-yl]amino]carbonyl]oxy]acetic acid]
22 | 1 to 5 | O=C(O)CCCN(C1CC1)C1c2ccc(F)cc2N(C(=O)OCc2ccccc2)C2CCC21 (single isomer, unassigned) [43B, 4-((cis, cis-3-(benzyloxycarbonyl)-5-fluoro-1,2,2a,3,8,8a-hexahydrocyclobuta[b]quinolin-8-yl)(cyclopropyl)amino) butanoic acid]
23 | 20.1 to 200 | O=C(O)CCCN(C1COC1)C1c2ccc(F)cc2N(C(=O)OCc2ccccc2)C2CCC21 (single isomer, unassigned) [43C, 4-((cis, cis-3-(benzyloxycarbonyl)-5-fluoro-1,2,2a,3,8,8a-hexahydrocyclobuta[b]quinolin-8-yl)(oxetan-3-yl)amino) butanoic acid]
24 | 1 to 5 | O=C(O)CCCN(C1CC1)C1c2ccc(F)cc2N(C(=O)c2ccc(OC(F)(F)F)cc2)C2CCC21 (single isomer, unassigned) [44D, 4-(cyclopropyl(cis, cis-5-fluoro-3-(4-(trifluoromethoxy)benzoyl)-1,2,2a,3,8,8a-hexahydrocyclobuta[b]quinolin-8-yl)amino)butanoic acid]
25 | 201 to 7500 | CC12CCC1N(C(=O)OCc1ccccc1)c1ccccc1C2N(CCCC(=O)O)C1CC1 (single isomer, unassigned) [48C, 4-((cis, trans-3-(benzyloxycarbonyl)-8a-methyl-1,2,2a,3,8,8a-hexahydrocyclobuta[b]quinolin-8-yl)(cyclopropyl)amino) butanoic acid]
26 | 5.1 to 20 | O=C(O)CCC(=O)N(C1CC1)C1c2cc(Br)ccc2N(C(=O)c2ccc(OC(F)(F)F)cc2)C2CCCC21 (single isomer, unassigned) [49B, 4-[[cis, cis-7-bromo-2,3,3a,4,9,9a-hexahydro-4-[4-(trifluoromethoxy)benzoyl]-1H-cyclopenta[b]quinolin-9-yl]cyclopropylamino]-4-oxobutanoic acid]
